Laboratory results: article PMC11997985, “Synthesis and In Vitro Profiling of Psilocin Derivatives: Improved Stability and Synthetic Properties” (Journal of Medicinal Chemistry, 2025)

Assay: Chemical stability in 1.0 M NaHCO3 and 1.0 M HCl
Conditions: 1 M HCl and 1 M NaHCO3

| Compound | stability in acidic and basic concentrations |
| --- | --- |
| CN(C)CCc1c[nH]c2cccc(OCc3ccccc3)c12 [Compound 3, 4-Benzyloxy-N,N-dimethyltryptamine] | demonstrated stability |
| CN(C)CCc1c[nH]c2cccc(OC(=O)N3CCCCC3)c12.O=C(O)/C=C/C(=O)O [Compound 4k] | demonstrated stability |
| CN(C)CCc1c[nH]c2cccc(OS(=O)(=O)O)c12 [Compound 6] | demonstrated stability |
| CN(C)CCc1c[nH]c2cccc(OP(=O)(O)O)c12 [Compound 8, 4-phosphoryloxy-N,N-dimethyltryptamine, reference compound] | demonstrated stability |
